By Kd is commonly meant the free concentration of one partner at which half of the binding sites on the other are occupied at equilibrium, for simple one-to-one binding.

Read-outs that look alike come from different tables or passages of the source.

For assay [1], the target named is T1, hPD-L1 (Homo sapiens, UniProt Q9NZQ7). The assay is described as follows: ELISA screening of Z variants. Format: binding. To be noted: Example 5 screening; hPD-L1 40 pM; negative controls 0.051 AU. The procedure: ELISA screening of Z variants: The binding of Z variants to hPD-L1 was analyzed in ELISA assays. Half-area 96-well ELISA plates (Costar, cat. no. 3690) were coated at 4° C. overnight with 2 μg/ml of an anti-ABD goat antibody (produced in-house) diluted in coating buffer (50 mM sodium carbonate, pH 9.6; Sigma, cat. no. C3041). The antibody solution was poured off and the wells were washed in water and blocked with 100 μl of PBSC (PBS supplemented with 0.5% casein; Sigma, cat. no. C8654) for 1 to 3 h at RT. The blocking solution was discarded and 50 μl periplasmic solutions, diluted 1:1 with PBST 0.05%, were added to the wells and incubated for 1.5 to 2.5 h at RT under slow agitation. As a blank control, PBST 0.05% was added instead of a periplasmic sample. The supernatants were poured off and the wells were washed 4 times with PBST 0.05%. Then, 50 μl of biotinylated hPD-L1 at a concentration of 0.32 nM in PBSC was added to each well. The plates were incubated for 1 h at RT followed by washes as described above. […] The absorbance at 450 nm was measured using a multi-well plate reader, Victor^3 (Perkin Elmer).
ELISA screening of Z variants: The binding of Z variants to human PD-L1 was analyzed in ELISA assays as described previously in Example 1 with the following exceptions. […]
For orientation: An ELISA detects its analyte on a solid surface through an enzyme-linked reagent.

In assay [2] the target is RhPD-L1. Put plainly: Biacore kinetic analysis of maturated Z variants, RhPD-L1. Format: binding, rhesus monkey. The procedure: (§1) hPD-L1, hPD-L2, hB7-H3, hB7-H4 and mPD-L1 were immobilized in separate flow cells on the carboxylated dextran layer of different CM5 chip surfaces (GE Healthcare, cat. no. BR100012). The immobilization was performed using amine coupling chemistry according to the manufacturer's protocol and using HBS-EP as running buffer (0.01 M HEPES pH 7.4, 0.15 M NaCl, 3 mM EDTA, 0.005% v/v Surfactant P20, GE Healthcare, cat. no. BR100188). […] One flow cell surface on each chip was activated and deactivated for use as blank during analyte injections. In the kinetic experiment, HBS-EP was used as running buffer and the flow rate was 50 μl/min. The analytes, i.e. the Z variants, were each diluted in HBS-EP buffer within a concentration range of 1000 to 0.01 nM and injected for 5 min, followed by dissociation in running buffer for 15-25 min. After dissociation, the surfaces were regenerated with one or two injections of 0.1% SDS. Kinetic constants were calculated from the sensorgrams using the Langmuir 1:1 model of BiaEvaluation software 4.1 (GE Healthcare).
Biacore kinetic and specificity analysis: Kinetic constants (ka and kd) and affinities (KD) for human PD-L1 and rhesus monkey PD-L1 (RhPD-L1; rhesus PD-L1/Fc Chimera, Sino Biological Inc., cat. no. 90251-C02H) were determined for 24 matured Hiss-tagged Z variants (specified in Example 6). The Z variants were also tested for binding against the sequence-related proteins hPD-L2, hB7-H3 and hB7-H4. The Biacore analyses were performed essentially as described in Example 3, however a flow rate of 30 μl/min was used. […] In a first binding kinetic analysis, the 24 Z variants were injected at concentrations of 5 and 50 nM over chips immobilized with hPD-L1 and RhPD-L1, respectively. […] In the specificity test, i.e. the binding analysis against hPD-L2, hB7-H3 and hB7-H4, the 24 Z variants were injected at a concentration of 500 nM.
Background: In SPR one partner is held on a chip, and binding of the other changes the refractive index at the surface.

Assay [3] concerns the target T1, hPD-L1. Put plainly: Biacore kinetic analysis of primary Z variants, hPD-L1. The class given is binding. To be noted: His6-tagged Z variants over immobilized hPD-L1; 1:1 model. Here is the method: Biacore kinetic and specificity analysis: Kinetic constants (ka and kd) and affinities (KD) for hPD-L1 were determined for 14 Hiss-tagged Z variants using a Biacore 2000 instrument (GE Healthcare). Some of the Z variants were also tested for binding against the sequence-related proteins hPD-L2, hB7-H3, hB7-H4 and mPD-L1 (mouse PD-L1 Fc Chimera, R&D Systems, cat. no. 1019-B7).
as §1

T1 sequence (Q9NZQ7 19-290): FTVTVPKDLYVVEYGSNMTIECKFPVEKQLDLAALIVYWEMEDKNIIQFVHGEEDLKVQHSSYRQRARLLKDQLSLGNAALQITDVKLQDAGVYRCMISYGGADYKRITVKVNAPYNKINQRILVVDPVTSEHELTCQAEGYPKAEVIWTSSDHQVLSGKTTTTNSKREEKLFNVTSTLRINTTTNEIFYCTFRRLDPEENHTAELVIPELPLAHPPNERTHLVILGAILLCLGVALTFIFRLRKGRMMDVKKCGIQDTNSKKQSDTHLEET

Regarding “Z13091: primary PD-L1 binding Z variant (VDAKYAKERNNAAFEILRLPNLTNGQHWAFIWKLADDPSQSSELLSEAKKLNDSQAPK; Engineered PD-L1 binding polypeptide)”, the “ELISA response against hPD-L1” value in assay [1] came to 0.264 AU. For the same substance, the Kd in assay [2] (His6-tagged Z variants at 135, 45, 15, 5 and 1.67 nM, read-out: RhPD-L1 KD) amounted to 5.4e-10 M; in assay [2] (ranking experiment, His6-tagged Z variants at 5 and 50 nM, 1:1 model, read-out: RhPD-L1 KD (M), approximate affinity constant), 5.2e-09 M.
“Z13156: primary PD-L1 binding Z variant (VDAKYAKERNQAAVEILQLPNLTAAQYWAFIWKLDDDPSQSSELLSEAKKLNDSQAPK; Engineered PD-L1 binding polypeptide)”: in assay [3], the Kd stood at 1.5 nM, the “ka” value was found to be 1.7e+06 M⁻¹ s⁻¹ and the “kd” value is 0.0025 s⁻¹.

(Values after US11155596B2, “Polypeptide” (AFFIBODY AB, priority 2016, dated 2021).)
